The results in this text go back to the antibiotic and cytotoxicity screens of Wong et al. (2023).

Some of the results follow.

Assay [1] concerns HSkMC (human skeletal muscle cells). The assay can be described thus: cytotoxicity call (relative viability < 0.9). As to conditions: 10 µM.
In assay [2] the test system is HepG2. Nature of the assay: cytotoxicity call (relative viability < 0.9). As to conditions: 10 µM.
Assay [3] has as its system S. aureus RN4220. Nature of the assay: growth inhibition call (relative growth <= 0.2). The following applies: 50 µM.

In the case of `C=CCC[C@@H](Cc1ccc(F)cc1)C(=O)O[C@@H](CNC(=O)[C@H](CC=C)CC(=O)N(CCO)Cc1ccccc1)c1ccccc1`, the cytotoxicity call in assay [1] and in assay [2] was “active” in each case. The growth inhibition call in assay [3] is “inactive”.

On to `C[C@@H]1CCCCO[C@@H](CN(C)S(=O)(=O)c2ccc(F)cc2)[C@H](C)CN([C@@H](C)CO)C(=O)c2cc(NC(=O)Nc3ccc(F)cc3)ccc2O1`, for which the cytotoxicity call in assay [1] and in assay [2] was “inactive” in each case. For the same compound, the growth inhibition call in assay [3] was “inactive”.

As for `C[C@@H]1CN([C@H](C)CO)C(=O)Cc2cc(NC(=O)Nc3ccc(F)cc3)ccc2O[C@H]1CN(C)C(=O)Nc1ccc(C(F)(F)F)cc1`, the cytotoxicity call in assay [1] and in assay [2] was “inactive” throughout. Besides, in assay [3], the growth inhibition call is “inactive”.

For `NC(=O)[C@@H]1CC[C@@H]2CN1C(=O)N2OS(=O)(=O)O`, the cytotoxicity call in assay [1] and in assay [2] was “inactive” throughout. Besides, in assay [3], the growth inhibition call was “inactive”.

Consider `COc1ccc(CN(C)C[C@@H]2OCCCC[C@H](C)Oc3ccc(NC(=O)Nc4ccc(F)cc4)cc3C(=O)N([C@H](C)CO)C[C@@H]2C)cc1`, for which, in assay [1], the cytotoxicity call is “inactive”. Also, the cytotoxicity call in assay [2] is “active”. In assay [3], the growth inhibition call was “inactive”.

For the compound `Cc1noc(C)c1NC(=O)Nc1ccc2c(c1)C(=O)N([C@@H](C)CO)C[C@H](C)[C@H](CN(C)S(=O)(=O)c1ccccc1)O2`, the cytotoxicity call in assay [1] and in assay [2] was “inactive” in each case. Also, the growth inhibition call in assay [3] is “inactive”.

Regarding `C[C@@H]1CN([C@@H](C)CO)C(=O)CCCn2cc(nn2)CO[C@@H]1CN(C)C(=O)Nc1ccnc(N2CCOCC2)c1`, the cytotoxicity call in assay [1] and in assay [2] was “inactive” in each case. Besides, the growth inhibition call in assay [3] was “inactive”.

Consider `CCS(=O)(=O)Nc1ccc2c(c1)C(=O)N(C)C[C@H](OC)[C@H](C)CN(CCC(F)(F)F)[C@H](C)CO2`, for which the cytotoxicity call in assay [1] and in assay [2] was “inactive” throughout. The growth inhibition call in assay [3] was “inactive”.

For the compound `C[C@@H]1CN([C@@H](C)CO)C(=O)c2cc(NS(=O)(=O)c3cn(C)cn3)ccc2O[C@@H](C)CCCCO[C@@H]1CN(C)C(=O)c1ccncc1`, the cytotoxicity call in assay [1] and in assay [2] was “inactive” in each case. Also, the growth inhibition call in assay [3] was “inactive”.

In the case of `C[C@@H]1CCCCO[C@@H](CN(C)C(=O)Nc2ccc3c(c2)OCO3)[C@H](C)CN([C@H](C)CO)C(=O)c2cc(NS(=O)(=O)c3cccs3)ccc2O1`, the cytotoxicity call in assay [1] and in assay [2] was “inactive” each time. Besides, the growth inhibition call in assay [3] is “inactive”.

As to `Cn1cnc(S(=O)(=O)N2C[C@H](O)COC[C@H]3O[C@@H](CC(=O)NC4CCCC4)CC[C@@H]32)c1`, the cytotoxicity call in assay [1] and in assay [2] was “inactive” in each case. Also, the growth inhibition call in assay [3] is “inactive”.

Consider `CCCCc1cn(C[C@H](Cc2ccccc2)NC(=O)N[C@H](CO)CCc2oc(C(C)=O)c(C(=O)OC)c2C(=O)OC)nn1`, for which the cytotoxicity call in assay [1] and in assay [2] was “inactive” each time. Further, the growth inhibition call in assay [3] was “inactive”.

In the case of `Oc1cccc(O)c1O`, the cytotoxicity call in assay [1] and in assay [2] was “inactive” each time. Moreover, in assay [3], the growth inhibition call was “inactive”.

Turning to `N=C(N)SCc1ccc(B(O)O)cc1`, the cytotoxicity call in assay [1] and in assay [2] was “inactive” throughout. The growth inhibition call in assay [3] is “inactive”.

On to `C[C@@H]1CN([C@H](C)CO)C(=O)Cc2cc(NC(=O)CCC(F)(F)F)ccc2O[C@H]1CN(C)S(C)(=O)=O`, for which the cytotoxicity call in assay [1] and in assay [2] was “inactive” throughout. For the same compound, in assay [3], the growth inhibition call is “inactive”.

For the compound `COc1ccc(NC(=O)Nc2ccc3c(c2)C(=O)N([C@@H](C)CO)C[C@H](C)[C@@H](CN(C)S(=O)(=O)c2cn(C)cn2)O3)cc1`, the cytotoxicity call in assay [1] and in assay [2] was “inactive” throughout. In addition, in assay [3], the growth inhibition call is “inactive”.

Consider `Cc1noc(C)c1NC(=O)N(C)C[C@@H]1OCCCC[C@@H](C)Oc2ccc(NC(=O)Nc3ccc(C(F)(F)F)cc3)cc2C(=O)N([C@H](C)CO)C[C@@H]1C`, for which the cytotoxicity call in assay [1] and in assay [2] was “inactive” in each case. Besides, in assay [3], the growth inhibition call was “inactive”.

Regarding `Cn1cnc(S(=O)(=O)N[C@H]2CC[C@H](CC(=O)NCC3CC3)O[C@H]2CO)c1`, the cytotoxicity call in assay [1] and in assay [2] was “inactive” each time. Moreover, the growth inhibition call in assay [3] was “inactive”.

Regarding `C[C@@H]1CN([C@@H](C)CO)C(=O)c2cc(NC(=O)NC3CCCCC3)ccc2O[C@@H](C)CCCCO[C@H]1CN(C)C(=O)C1CCCCC1`, the cytotoxicity call in assay [1] is “inactive”. Moreover, the cytotoxicity call in assay [2] is “active”. Further, the growth inhibition call in assay [3] is “inactive”.

For the compound `Cc1nn2cc(CN)nc2s1`, the cytotoxicity call in assay [1] and in assay [2] was “inactive” in each case. The growth inhibition call in assay [3] is “inactive”.

With `Cc1noc(C)c1NC(=O)N(C)C[C@@H]1OCCCC[C@H](C)Oc2ccc(NS(=O)(=O)c3ccc(F)cc3)cc2C(=O)N([C@@H](C)CO)C[C@H]1C`, the cytotoxicity call in assay [1] and in assay [2] was “inactive” in each case. Further, the growth inhibition call in assay [3] was “inactive”.

In the case of `C[C@H]1CN([C@@H](C)CO)C(=O)c2cc(C#CC3(O)CCCC3)cnc2O[C@@H]1CN(C)C(=O)C1CCCCC1`, the cytotoxicity call in assay [1] and in assay [2] was “inactive” in each case. In assay [3], the growth inhibition call was “inactive”.

`Cc1ccc(S(=O)(=O)Nc2ccc3c(c2)C(=O)N([C@@H](C)CO)C[C@H](C)[C@H](CN(C)S(=O)(=O)c2ccc(C)cc2)OCCCC[C@@H](C)O3)cc1`: the cytotoxicity call in assay [1] and in assay [2] was “inactive” each time. The growth inhibition call in assay [3] is “inactive”.

As to `C[C@@H]1CCCCO[C@@H](CN(C)C(=O)C2CCCCC2)[C@H](C)CN([C@@H](C)CO)C(=O)c2cc(NC(=O)Nc3ccc4c(c3)OCO4)ccc2O1`, the cytotoxicity call in assay [1] and in assay [2] was “inactive” in each case. For the same compound, the growth inhibition call in assay [3] is “inactive”.

Turning to `C[C@@H]1CN([C@@H](C)CO)C(=O)c2cc(NC(=O)C3CC3)ccc2O[C@H]1CN(C)Cc1ccc2c(c1)OCO2`, the cytotoxicity call in assay [1] and in assay [2] was “inactive” throughout. Further, the growth inhibition call in assay [3] is “inactive”.

`Cc1ccc(S(=O)(=O)N(C)C[C@H]2OCCCC[C@@H](C)Oc3ccc(NC(=O)Nc4c(C)noc4C)cc3C(=O)N([C@@H](C)CO)C[C@H]2C)cc1`: the cytotoxicity call in assay [1] and in assay [2] was “inactive” in each case. Moreover, the growth inhibition call in assay [3] was “inactive”.

In the case of `CC(=O)N1C[C@H](O)C[C@H]1C(=O)O`, the cytotoxicity call in assay [1] and in assay [2] was “inactive” in each case. For the same compound, the growth inhibition call in assay [3] is “inactive”.

Regarding `O=C(C[C@H]1CC[C@@H]2[C@H](COC[C@@H](O)CN2C(=O)Nc2ccc(Cl)cc2)O1)NC1Cc2ccccc2C1`, the cytotoxicity call in assay [1] and in assay [2] was “inactive” throughout. The growth inhibition call in assay [3] was “inactive”.
